In all, about 220,000 compounds went through this assay and about 16,000 (7.3%) were called active. The inconclusive results got no clear call from the source; some entries with a clear call stand among them for comparison. The call rests on the fitted dose curve; in most records, active means well fitted inhibition curve with a large enough effect (not every such curve was filed as active); inconclusive means small, poorly fitted or top-dose-only effect, or another doubt; inactive means no such curve, though single readings can be large or run the other way. Potencies of inconclusive entries are left out as doubtful fits.
biological target: Aldehyde dehydrogenase 1A1 (Homo sapiens) (UniProt P00352); assay: qHTS Assay for Inhibitors of Aldehyde Dehydrogenase 1 (ALDH1A1); conditions: Purified ALDH1A1, NADH fluorescence, propionaldehyde substrate; series mostly up to 75.3 µM; activity, negative = inhibition: at the top concentration;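 on activity, negative = inhibition: plate controls were no enzyme wells and a reference inhibitor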
Potency means the concentration at half of the fitted maximal effect; tags describe the fitted curve by direction and shape.

Sequence of UniProt P00352 (P00352 whole entry, looked up): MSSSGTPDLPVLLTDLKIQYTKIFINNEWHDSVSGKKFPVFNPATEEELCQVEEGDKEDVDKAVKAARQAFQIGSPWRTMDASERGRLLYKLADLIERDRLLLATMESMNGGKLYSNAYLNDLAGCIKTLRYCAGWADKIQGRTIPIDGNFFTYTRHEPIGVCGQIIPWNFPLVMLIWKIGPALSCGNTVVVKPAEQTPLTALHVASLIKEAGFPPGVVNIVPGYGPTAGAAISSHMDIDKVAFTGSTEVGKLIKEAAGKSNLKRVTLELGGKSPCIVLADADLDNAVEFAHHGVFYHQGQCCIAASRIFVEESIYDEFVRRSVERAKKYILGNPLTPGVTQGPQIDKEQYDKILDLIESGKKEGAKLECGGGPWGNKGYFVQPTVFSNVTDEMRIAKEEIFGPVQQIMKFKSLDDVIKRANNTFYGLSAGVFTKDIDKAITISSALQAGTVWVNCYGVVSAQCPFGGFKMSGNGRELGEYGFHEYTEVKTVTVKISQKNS

| SMILES | Potency | activity, negative = inhibition |
| --- | --- | --- |
| CSCCC(NC(=O)COc1ccccc1)C(=O)OCC(=O)c1cc2ccccc2o1 (stereo not given) | inconclusive [inhibitor, single point] | – |
| COC(=O)c1ccccc1NS(=O)(=O)c1cn(C)c(=O)n(C)c1=O | – | inactive: -2.9% |
| C/C(=N\NC(=O)c1ccc(CN2CCOCC2)cc1)c1ccc([N+](=O)[O-])cc1 | inconclusive [inhibitor, partial curve] | – |
| Cc1[nH]n(-c2c(Cl)cc(Cl)cc2Cl)c(=O)c1C=Nc1ccc(S(=O)(=O)N2CCOCC2)cc1 | – | inactive: -0.896% |
| N#CC1=C(N)N(c2ncn[nH]2)C2=C(C(=O)CCC2)C1c1ccccc1 (stereo not given) | – | inactive: 3.06% |
| Cc1ccc(C(=O)CN(Cc2ccccc2)C2=NCCS2)cc1 | active: 20 µM | – |
| Cc1cccc(CC(=O)OCn2nnc3ccccc3c2=O)c1 | – | inactive: 2.36% |
| O=C(Nc1ccc(S(=O)(=O)Nc2ccccc2)cc1)c1ccc(CN2CCOCC2)cc1 | – | inactive: 5.6% |
| COc1ccc2oc3cc(C)[n+]([O-])c(-c4ccc(Cl)cc4)c3c2c1 | inconclusive [inhibitor, single point] | – |
| C=CCSc1nnc(-c2nnc(SCC=C)n2CC)n1CC | inconclusive [inhibitor, single point] | – |
| COc1ccc(OC)c(NC(=O)CSCC(=O)O)c1 | active: 20 µM | – |
| CCc1cc(C(=O)Cc2nc3ccccc3s2)c(O)cc1OCC(=O)O | – | inactive: 0.501% |
| CCN(CC)CC(=O)N(CC(=O)Nc1c(C)cc(C)cc1C)C1CCCCC1 | – | inactive: -5.25% |
| COc1ccc(Cn2c(/C=C/c3ccccc3)nc3ccccc32)cc1 | inconclusive [inhibitor, partial curve] | – |
| Cc1ccc(C2C(C#N)=C(N)Oc3cc4c(cc32)OCO4)cc1 (stereo not given) | inconclusive [inhibitor, partial curve] | – |
| CCOC(=O)C1CCCN(Cc2nc3ccc([N+](=O)[O-])cc3c(=O)n2-c2ccc(OC)cc2OC)C1 (stereo not given) | – | inactive: -6.93% |
| COC(=O)C1CCN(C(=O)Cc2ccc(Br)cc2)CC1 | inconclusive [inhibitor, single point] | – |
| NC(CSCSCC(N)C(=O)O)C(=O)O (stereo not given) | – | inactive: 2.94% |
| CC(=O)Nc1cccc(NC(=O)CSc2nnc(Cc3cccn3C)n2CCc2ccccc2)c1 | – | inactive: -15.3% |
| COC(=O)c1ccc(Cl)c(NC(C)=O)c1 | inconclusive [inhibitor, single point] | – |
| O=C(CCc1nc(-c2ccccc2F)no1)NCCc1ccccc1Cl | inconclusive [inhibitor, single point] | – |
| COc1cc2c(cc1OC)CN(CC(=O)Nc1cccc(C)c1)CC2 | – | inactive: -1.06% |
| CCCCn1c(NC(=O)c2ccco2)c(S(=O)(=O)c2ccc(C)cc2)c2nc3ccccc3nc21 | inconclusive [inhibitor, partial curve] | – |
| Cc1cc(C(=O)Nc2nc(-c3ccccn3)cs2)ccc1[N+](=O)[O-] | inconclusive [inhibitor, single point] | – |
| O=c1/c(=C\c2cccnc2)sc2nc3ccccc3n12 | – | inactive: 1.81% |

| SMILES | Potency | activity, negative = inhibition |
| --- | --- | --- |
| Fc1ccccc1COc1ccc2ccccc2c1CNc1nn[nH]n1 | – | inactive: -12.5% |
| S=C(Nc1cccc2ccccc12)N1CCN(c2ncccn2)CC1 | inconclusive [inhibitor, single point] | – |
| CCN(CC)C(=O)CSc1nc2cc3c(cc2c(=O)n1Cc1ccc(OC)cc1)OCO3 | – | inactive: -12.3% |
| O=c1c2ccccc2nc(-c2ccccc2)n1Cc1ccco1 | inconclusive [inhibitor, partial curve] | – |
| COc1ccc(-c2csc(-c3ccc(C(=O)O)cc3)n2)cc1 | inconclusive [inhibitor, single point] | – |
| O=C(Nc1nccs1)C(c1ccccc1)N1CCCCC1 (stereo not given) | inconclusive [inhibitor, single point] | – |
| O=C(OCC(=O)N1CCCCC1)c1cc(NS(=O)(=O)c2ccc(Cl)c([N+](=O)[O-])c2)ccc1O | – | inactive: -4.86% |
| COC(=O)c1ccccc1NC(=O)NCc1ccncc1 | inconclusive [inhibitor, single point] | – |
| Cc1c(/C(O)=C2\C(=O)C(=O)N(CCN(C)C)C2c2cccs2)cnn1-c1ccccc1 (stereo not given) | inconclusive [inhibitor, single point] | – |
| N#C/C(=C(\O)CCl)c1nnc2n1CCCCC2 | inconclusive [inhibitor, single point] | – |
| COc1ccc(C2=NN(C(=O)c3ccc(Cl)c([N+](=O)[O-])c3)C(c3ccccc3)C2)cc1 (stereo not given) | inconclusive [inhibitor, single point] | – |
| Cn1c(=O)c2c(nc(OCc3ccc4c(c3)OCO4)n2Cc2ccccc2Cl)n(C)c1=O | inconclusive [inhibitor, single point] | – |
| OCCN(Cc1ccccc1)CC(O)COc1ccc(-c2ccccc2)cc1 (stereo not given) | inconclusive [inhibitor, single point] | – |
| CCOC(=O)N1CCN(c2c(NCCc3ccc(OC)c(OC)c3)c(=O)c2=O)CC1 | inconclusive [inhibitor, single point] | – |
| CCCN1CCN(C(=S)NCc2ccc(Cl)cc2)CC1 | – | inactive: -4.56% |
| Cc1ccc(-c2nn(-c3ccccc3)cc2CNCc2ccccc2)cc1 | active: 22.4 µM | – |
| O=C(CSc1nc2c(cnn2-c2ccc(F)cc2)c(=O)[nH]1)N1N=C(c2cccs2)CC1c1ccc(F)cc1 (stereo not given) | inconclusive [inhibitor, partial curve] | – |
| O=P1(O)Oc2c(-c3ccccc3)cc3ccccc3c2-c2c(c(-c3ccccc3)cc3ccccc23)O1 | – | inactive: -2.56% |
| CC(=O)Nc1nc(=S)ss1 | active: 3.16 µM | – |
| CCCCCN(C(=O)NC(=O)Nc1cccc(C)c1C)S(C)(=O)=O | inconclusive [inhibitor, partial curve, poor fit] | – |
| CN(C)c1ccc(C=Nc2ccccc2)cc1 | active: 0.891 µM | – |
| CCOc1ccc(OCCCCN(C)C)cc1 | inconclusive [inhibitor, single point] | – |
| CCCCNC(=S)Nc1ccc(OC)nc1 | – | inactive: 1.03% |
| CCOC(=O)C1=C(C)C(c2ccccc2O)NC(=O)N1 (stereo not given) | – | inactive: -2.04% |
| COc1ccc(C(c2nnnn2C2CCCC2)N2CCC(C)CC2)cc1 (stereo not given) | inconclusive [inhibitor, full curve] | – |

| SMILES | Potency | activity, negative = inhibition |
| --- | --- | --- |
| COC(=O)c1ccc2c(c1)C(C)(C)C(/C=C/c1ccc(O)cc1)=[N+]2C | inconclusive [inhibitor, single point] | – |
| CC(=O)c1ccc(N=c2scc(C)n2C(C)C)cc1 | – | inactive: 4.18% |
| Oc1ccc(C[C@@H]2CNC(=S)N2CCCCC2CCCCC2)cc1 | inconclusive [inhibitor, single point] | – |
| Cc1onc(-c2c(F)cccc2Cl)c1C(=O)OCC(=O)NCc1ccco1 | inconclusive [inhibitor, single point] | – |
| O=C(COc1ccc(-c2ccccc2)cc1)N1CCN(C(=O)c2cccs2)CC1 | inconclusive [inhibitor, partial curve] | – |
| CN1C(=O)C(CC(=O)Nc2ccc3c(c2)Cc2ccccc2-3)N(C)C1=O (stereo not given) | – | inactive: 2.18% |
| Cc1ccc2oc(=O)c3cnn(CC(=O)N(CCC(C)C)Cc4ccco4)c3c2c1 | – | inactive: -1.39% |
| O=C(NC1CCCCC1)C(c1cccs1)N(CC1CCCO1)C(=O)c1csnn1 (stereo not given) | inconclusive [inhibitor, single point] | – |
| CCOc1ccccc1N1Cc2cc(C)c(C)cc2C1 | inconclusive [inhibitor, single point] | – |
| C=CC(=O)OCCCCCCOC(=O)C=C | active: 2 µM | – |
| CCOc1cccc(-c2nnc3sc(COc4ccc(OC)cc4)nn23)c1 | inconclusive [inhibitor, single point] | – |
| Cc1cccc(C(=O)Nc2nnc(-c3ccco3)o2)c1 | – | inactive: 4% |
| C=CCN1C(=O)C2(C(C(=O)c3ccc(C)o3)=C(O)C(=O)N2CCCN2CCOCC2)c2ccccc21 (stereo not given) | – | inactive: 20.6% |
| Cc1conc1NC(c1cccs1)c1ccc2cccnc2c1O (stereo not given) | inconclusive [inhibitor, single point] | – |
| COCCNc1cc(C)nc2cc(-c3ccc(C)cc3)nn12 | inconclusive [inhibitor, single point] | – |
| Cc1ccc2c(=O)c(C(=O)NCc3cccs3)c[nH]c2c1 | inconclusive [inhibitor, partial curve] | – |
| COC(=O)CC1=NN(c2ccccc2)C(=O)/C1=C\c1ccc(OC)cc1 | inconclusive [inhibitor, single point] | – |
| Cn1c(SCC(=O)NC2CCCC2)nnc1-c1ccncc1 | – | inactive: 3.26% |
| COc1ccc(/C=C(\C#N)C(=O)OCC(=O)NCc2ccccc2)cc1 | inconclusive [inhibitor, partial curve] | – |
| CCOCCCNC(=O)COC(=O)/C=C/c1ccc(S(=O)(=O)N2CCc3ccccc32)cc1 | active: 7.94 µM | – |
| O=C(O)COc1ccc(Br)cc1/C=C1/SC(=O)N(CC(=O)N2CCCC2)C1=O | inconclusive [inhibitor, single point] | – |
| COc1ccccc1N(C1=NCCCS1)S(=O)(=O)c1ccc(C(C)(C)C)cc1 | active: 0.224 µM | – |
| CC1CCCN(CC(=O)N2c3ccccc3Sc3ccccc32)C1 (stereo not given) | inconclusive [inhibitor, partial curve] | – |
| O=C(COC(=O)c1c2c(nc3ccccc13)/C(=C/c1ccco1)CC2)NC1CCCC1 | inconclusive [inhibitor, single point] | – |
| Oc1ccc(C(=S)N2CCCCCC2)cc1 | inconclusive [inhibitor, single point] | – |
